In PMC6919601, “Identification of Plasmodium dipeptidyl aminopeptidase allosteric inhibitors by high throughput screening” (PLoS ONE, 2019):
Screen size: about 110,000 compounds; about 230 (0.21%) showed an effect of 50% or more. The list shows a part of the results.

Target: DPAP1 (Plasmodium falciparum, UniProt Q8IIJ9)
Test: primary screen, percent inhibition; read by cleavage of a fluorogenic dipeptide substrate; higher = more effect of the substance
Set-up: species or system P. falciparum D10 trophozoite lysates; single well
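Further: 30 min substrate incubation versus DMSO and 10 µM JCP410 controls.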

DPAP1, sequence (Q8IIJ9 whole entry, looked up): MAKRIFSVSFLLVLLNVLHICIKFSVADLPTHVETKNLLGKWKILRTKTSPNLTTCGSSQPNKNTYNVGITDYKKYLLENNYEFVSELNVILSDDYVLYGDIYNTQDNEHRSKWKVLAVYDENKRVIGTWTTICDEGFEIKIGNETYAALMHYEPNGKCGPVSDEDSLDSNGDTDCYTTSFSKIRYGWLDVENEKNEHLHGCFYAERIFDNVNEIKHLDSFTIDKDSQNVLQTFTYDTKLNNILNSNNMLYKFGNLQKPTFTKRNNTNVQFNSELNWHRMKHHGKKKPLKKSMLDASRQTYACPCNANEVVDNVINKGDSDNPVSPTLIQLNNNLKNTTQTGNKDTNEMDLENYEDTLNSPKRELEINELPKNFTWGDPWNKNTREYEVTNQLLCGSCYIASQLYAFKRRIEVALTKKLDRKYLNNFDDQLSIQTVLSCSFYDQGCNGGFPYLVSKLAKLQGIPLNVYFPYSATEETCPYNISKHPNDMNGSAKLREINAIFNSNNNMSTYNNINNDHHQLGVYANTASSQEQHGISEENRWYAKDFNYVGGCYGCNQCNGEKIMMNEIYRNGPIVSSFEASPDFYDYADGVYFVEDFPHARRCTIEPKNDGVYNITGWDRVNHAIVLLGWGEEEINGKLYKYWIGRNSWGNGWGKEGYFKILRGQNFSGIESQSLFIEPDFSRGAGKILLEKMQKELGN

Point of comparison: `Cc1nc2ccc(S(=O)(=O)NCC(=O)N3CCN(Cc4ccccc4)CC3)cc2s1`, “% Inhibition @ 10 uM” value -0.72%. Against it:
- CCOC(=O)/C(C#N)=C(\C)c1ccc([N+](=O)[O-])cc1 — higher, 1.54%
- COc1ccc(/C=C2\SC(N3CCN(Cc4ccccc4)CC3)=NC2=O)c(OC)c1 — higher, 0.147%
- COc1ccc(C2=NN(C(=O)CCC(=O)O)C(c3ccc(OC)c(OC)c3)C2)cc1 (stereo not shown) — lower, -6.2%
- COc1ccc(-c2cc(C)no2)cc1S(=O)(=O)NCCSCc1ccco1 — higher, 4.55%
- CCOc1cc(/C=C2/NC(=O)NC2=O)ccc1OCc1ccc(Cl)cc1Cl — lower, -3.06%
- COc1cccc(-n2nnc3c(=O)n(CC(=O)NCc4ccccc4)cnc32)c1 — lower, -3.94%
- COCCn1c(=N)c(C(=O)NCc2ccccc2)cc2c(=O)n3cccc(C)c3nc21 — lower, -1.47%
- CC1CCN(C(=O)CN(Cc2ccccc2)S(=O)(=O)c2cc(Cl)ccc2Cl)CC1 — higher, 3.79%
- CCC(C)N(CCCNC(=O)c1nn(C)c2c1CS(=O)(=O)c1ccccc1-2)Cc1ccco1 (stereo not shown) — lower, -3.8%
- Cc1nc2c3ccccc3nc(SCC(=O)c3ccc(Cl)c(Cl)c3)n2n1 — higher, 4.33%
- O=C(NCCC1=CCCCC1)C1CCN(c2nc3ccc(Br)cc3s2)CC1 — lower, -7.02%
- COc1ccc(-c2nc3ccccc3n2-c2cc(-c3ccccc3)nn2-c2ccccc2)cc1 — lower, -8.01%
- Cc1noc(NS(=O)(=O)c2ccc(NC(=O)c3ccoc3C)cc2)c1C — lower, -1.44%
- O=C(C1CCN(S(=O)(=O)N2CCCC2)CC1)N1CCOCC1 — higher, 3.79%
- Cc1cccc(-n2nnc(-c3nc(-c4ccc(Cl)cc4)no3)c2N)c1C — higher, 0.868%
- CCCN1CC=C2C(C#N)=C(N)C(C#N)(C#N)C(c3cccc(OC)c3OC)C2C1 (stereo not shown) — higher, 1.58%
- CC(C)C[C@H](NC(=O)c1ccc(-n2ccnc2)nc1)C(=O)NCC#N — lower, -0.778%
- CCOC(=O)C1=C(c2ccccc2)N2CCN=C2S1 — higher, 6.06%
- CCN(CC)C(=S)SC1=C(C)CS(=O)(=O)C1 — lower, -7.7%
- COCCCNc1oc(-c2ccc(OC)cc2)nc1C#N — higher, 3.43%
- CN1CCC(OC(c2ccccc2)c2ccccc2)CC1 — higher, 0.385%
- N#CCNC(=O)[C@H](Cc1cc(Cl)c(O)c(Cl)c1)NC(=O)c1ccc(-c2ccc(Cl)cc2)cc1 — lower, -3.25%
- CCOC(=O)c1cnn2c(O)cc(C)nc12 — higher, 3.74%
- CCN(CC)C(=O)CSc1nc2ccc(NC(=O)c3ccccc3)cc2s1 — higher, 4.09%
- CN1CCN(c2nc3c(O)ncnc3n2C2OC(CO)C(O)C2O)CC1 (stereo not shown) — higher, 4.41%
- CC(=O)Nc1ccc(C(=O)Nc2ccc3c(c2)N(C(=O)CN(C)C)c2ccccc2CC3)cc1 — higher, 0.937%
- O=C(c1ccc(CN2C(=O)CCn3nccc32)cc1)N1CCOCC1 — lower, -1.6%
- CCCSC1=C(C#N)C(c2ccco2)C(C(=O)Nc2ccccc2)=C(C)N1 (stereo not shown) — higher, 3.05%
- CCOc1cc(/C=C2\SC(=O)NC2=O)ccc1OCC(C)C — lower, -5.82%
- O=C(Nc1cccnc1)c1c(O)nc2ccccc2c1O — lower, -3.23%
- CCC(Cc1ccccc1)NC(=O)c1cc(C)nn1-c1ccccc1 (stereo not shown) — higher, -0.138%
- CCN(CC)S(=O)(=O)c1ccc(F)c(C(=O)NCCC2=CCCCC2)c1 — lower, -1.99%
- CN1CCC(N(C)Cc2ccc(-c3cccc(Cl)c3)o2)CC1 — higher, 1.57%
- O=C1CC(NCc2cccc(Cl)c2)C(=O)N1c1ccccc1 (stereo not shown) — higher, 6.48%
- Cc1cc2c(c(=O)o1)C1(C(=O)Nc3cc(Br)c(C)cc31)C(C#N)=C(N)O2 (stereo not shown) — higher, -0.546%
- Cc1ccc(-c2ccc(=O)n(CC(=O)NCCCN3CCCCC3)n2)cc1 — lower, -1.21%
- CCCNC(=O)Cn1nc(C)n2c(cc3cc(OC)ccc32)c1=O — higher, 4.84%
- Cc1ccccc1-c1nc(CS(=O)(=O)CC(=O)NCCCN2C(C)CCCC2C)c(C)o1 (stereo not shown) — higher, -0.138%
- CCCCC(C(=O)N1CCOCC1)N1C(=O)C2C3c4ccccc4C(c4ccccc43)C2C1=O (stereo not shown) — higher, 0.777%
- Cc1cc(C)cc(NS(=O)(=O)c2c(C)cc(C)cc2C)c1 — higher, 5.43%
- CCc1ccccc1S(=O)(=O)Cc1ccc(C(=O)NCc2ccccc2Cl)o1 — higher, 5.34%
- CCN(CC)C(=O)C1CCCN(Cc2cccnc2)C1 (stereo not shown) — lower, -4.5%
- CC[C@H](C)[C@H](NC(=O)Cc1cccnc1)C(=O)N[C@@H](CCc1ccccc1)C(=O)CO — lower, -7.36%
- O=C(CSc1nc(-c2ccccc2Cl)n[nH]1)c1ccccc1 — higher, -0.25%
- Cc1ccc(Cl)cc1NC(=O)c1sc2nc(-c3ccncc3)ccc2c1N — lower, -3.39%
- CCCc1ccc(OCC(O)CN2CCCC2)cc1 (stereo not shown) — higher, 6.25%
- CC1CN(C(=O)c2cccc3c2-c2ccccc2C3=O)CC(C)O1 (stereo not shown) — higher, 2.46%
- CCn1cc(/C=C(\NC(=O)c2ccccc2)C(=O)NCCN2CCOCC2)c2ccccc21 — higher, -0.0235%
